Data from the RNAGym collection of RNA variant scans (doi:10.7554/elife.90254).
The source gives no read counts; variants with many changes may rest on few reads.

B1: LINE1-mini (parent)
chain: GGCAGAGCUCAACACAGCGUGGCAAAGUGGCUGUGGCUAGACUGCC

Variants of: B1
Experiment: self-cleavage, relative activity (ratio to wild type); higher = more cleavage; in vitro, sequencing; the parent is a self-cleaving ribozyme

Row | Variant | self-cleavage
1 | A26U G27A G35C G36A U43G | 0.01
2 | A26U U38A C45U | 0.37
3 | A25U A26G C37G | 0.04
4 | G27C G29A U32G | 0.06
5 | A25G C42G C45U | 0.06
6 | A25G G29U G36A A41U C45U | 0.01
7 | A26U U28C C31U G33C U38A | 0.08
8 | A26G G29U A41C | 0.05
9 | A26G U32C C45A | 0.02
10 | A26C U32G A39G U43C | 0.08
11 | G27C G29A U38C A39G | 0.23
12 | A25G G30U C31A | 0.04
13 | G27C U28A A41U C46A | 0.93
14 | A25G U34A A39G A41G C42A | 0.03
15 | G27A G33C C45U | 0.03
16 | G27A G35U U43G C46U | 0
17 | A25U G27U U32A A39C C45A | 0.08
18 | A25U G30A G33U G44A | 0.07
19 | A26C G30U U34G G36U G40U | 0.03
20 | G27C G36C A39C | 0.04
21 | A25G G27A G30U | 0.83
22 | A26C U34C G36A | 0.18
23 | A26C G33U C45U | 0.41
24 | A26C G29A G33A | 0.06

Row | Variant | self-cleavage
25 | G27A U32G G36U G40C | 0.03
26 | A26U G27U G30A C31U U32G | 0.08
27 | A26C G27C C31U A41C C42U | 0.05
28 | G27A C31A A41G C42A | 0.03
29 | G27C C42U C45G | 0.1
30 | G27C G36A C42U | 0.03
31 | G27C G29C G40A | 0.03
32 | A26C G30A C31U | 0.82
33 | A26G G30U A39U | 0.97
34 | A26U U38C G40U | 0.02
35 | A26U G35U G36U | 0.2
36 | A25U U28A G36A C42A G44U | 0.19
37 | A26C G29A C37A G44A | 0.06
38 | A26U G30A C31U G36U | 0.14
39 | A26C G36U C42A | 0.08
40 | A26U G40C A41C | 0.05
41 | A26G G30C G33U | 0.03
42 | G27C C37A G40C | 0.05
43 | A25G G27A G33U | 0.04
44 | A26C G33C U34G G35U | 0.03
45 | A26C G30U A39U A41C | 0.06
46 | A26U C37A G44C | 0
47 | A26G C37U U38A A41C | 0.02
48 | A26C G35C G36U | 0.14

Row | Variant | self-cleavage
49 | G27A G29A C31G G40U | 0.06
50 | A25G G35U U38C | 0.04
51 | A26C U34G G35U | 0.07
52 | A26G U32A G33C G35A U38A | 0.06
53 | A25G G29A G30A C46U | 0.14
54 | G27A U38G C46A | 0.02
55 | G27C G29A G30A | 2.88
56 | A25U U28C G40U U43G | 0.02
57 | A25U U34G G44A | 0.05
58 | A26U U34G C45U | 0.07
59 | G27A C42A C45G | 0.05
60 | A26U G33C U43A | 0.03
61 | A25G G29U G40A U43A | 0.04
62 | A26C U28C G29U A39U | 0.15
63 | A25G U38A C42U | 0.04
64 | A26G U38C C46U | 0.21
65 | A25G C31A C42A U43C | 0.23
66 | A25U G35C C37U | 0.03
67 | G27A G30A C31U | 1.37
68 | A26C C31G A39U C46A | 0.03
69 | A25U G27A G44A | 0.3
70 | A26U C31U G33C U34A | 0.01
71 | G27C U28A G30A | 1.09
72 | A26G G33C A39C | 0.09

Row | Variant | self-cleavage
73 | A26C U34C A41C | 0.03
74 | A26C U28C U32G | 0.09
75 | A25U U34C A39C A41U | 0.05
76 | A25G C31U G35C | 0.03
77 | A25G A39U C46U | 1.23
78 | A26C U34G C37U | 0.07
79 | A26G G27A G29C | 0.39
80 | A26G G35U A39G | 0.03
81 | A26U G33A G40U | 0.05
82 | A26C G44C C45U | 0.03
83 | G27C C31A A39U G44U | 0.01
84 | A25U G30C U38A | 0.88
85 | A25G G27U U28C | 0.08
86 | G27A U32C G33A | 0.03
87 | G27C G35U A41U | 0.22
88 | G27C C42A C46A | 0.09
89 | A26U U28C G30C U34G | 0.06
90 | A26G G30C G33A C37A | 0.07
91 | A25U U28C U43G | 0.01
92 | A25U G30A U32G | 0.08
93 | A26G U32A G33U U34A U38A | 0.07
94 | A26U U32G G36U | 0.06
95 | A25U G29C G36A | 0.03
96 | A26U G40C C42A | 0.02

Row | Variant | self-cleavage
97 | A25U U34G U43A | 0.02
98 | A26C G30U G33A | 0.12
99 | A26U G29U U43A | 0.11
100 | A26G C37A G44A | 0.03
101 | G27A G33A U43C | 0.06
102 | A25G G36U U38C | 0.02
103 | A25G U34G C37U | 0.15
104 | A26G A39C A41U | 0.05
105 | A26G G30U C37A A39G | 0.01
106 | A25U C31U G40C C45A | 0.15
107 | A26U C31A U38C A41C C45G | 0.05
108 | G27C G36U G40U | 0.1
109 | A26U G29U C31U A39G | 0.1
110 | A25G U28C G40A | 0.02
111 | A25G C31G G36A | 0.08
112 | A26U U28C G30U | 0.7
113 | A26G G27U U38G | 0.02
114 | G27A G35C A39U | 0.09
115 | A26C G35A A41U | 0.07
116 | G27A U28G U32A | 0.03
117 | A25U G29A G33C G36C | 0.03
118 | A26C G29A U38G | 0.03
119 | A25G G27U G30C A39U | 0.2
120 | A25G C42A U43A | 0.01

Row | Variant | self-cleavage
121 | A26C G33A A39G | 0
122 | A26G G40A A41G | 0.02
123 | A25U U34G A41G U43C | 0.02
124 | A25U G27U G44C | 0.36
125 | A26U G27U G30C | 1.77
126 | G27A U43C C45G | 0.06
127 | A25G C37U A41U | 0.03
128 | A25G G30A C42U C46U | 0.15
129 | A26G G40A C46A | 0.22
130 | G27A C31U G40A C45A | 0.02
131 | G27C G33U C42G | 0.08
132 | A25U U28G G35A | 0.06
133 | G27A G36C C37G | 0.11
134 | G27C G30C G35A | 0.04
135 | A26G G27C G33U | 0.04
136 | A26U G29C G35A G40A | 0.03
137 | A26G G29C C42U | 0.03
138 | A25U C31A G40C C45U | 0
139 | G27C G29U G35A C37A | 0.07
140 | A26G G30C G33A A39G A41C | 0.02
141 | A26U C31G G40A | 0.02
142 | A26U C31G G40C | 0.1
143 | G27A C31U U38G | 0.03
144 | G27A G33U G36U G40A A41U U43G | 0.02

Row | Variant | self-cleavage
145 | A25U A26U U34A G40U C42G | 0.02
146 | G27A U28A U32G | 0.3
147 | G27A G35A C46G | 0.07
148 | A25U A26C U28A C37U | 0.01
149 | A26U U28A A39C | 0.45
150 | A26U U34C U43C | 0.05
151 | A26C G36C U38C U43G C45G | 0.15
152 | G27A G36U G40C | 0.11
153 | A26U U32A G35C | 0.05
154 | A25G U28G C37A | 0.02
155 | G27C G29A G35C | 0.03
156 | A26G U28G G30A G36A C45G | 0.04
157 | G27A G33U G40C | 0.02
158 | A25G G27C C31U G35U A39C | 0.02
159 | A25G G27U U38C | 0.07
160 | A26U U38A A39C | 1.09
161 | A26U U32G A39U G40C | 0
162 | G27A C31G G36U | 0.03
163 | G27A G29C G35U U38C | 0.02
164 | G27C A39C C42U G44U | 0.06
165 | G27C C37G C42U | 0
166 | A25U C31U G35U | 0.18
167 | G27C A39G C42A C46U | 0.1
